Assay results published in PubChem BioAssay AID2071 (Sanford-Burnham Center for Chemical Genomics, 2009).
The list shows a part of the results. Further columns of the screen follow, without active or inactive calls. Most of these compounds were active or inconclusive in the main read-out, so they are no random draw.

Assay: NALP1 inflammasome inhibitors in reconstituted yeast, colorimetric, S. cerevisiae, triplicate retest (AID 2071)
Details: S. cerevisiae NALP1/ASC/caspase-1 growth, X-gal OD620, 72 h, at 20 µM, stronger effect = higher value

Structure (SMILES) | inhibition
COc1ccc(CNCCC(c2ccc(F)cc2)c2ccc(OC)cc2)cc1 (centres undefined) | 92.5%
O=c1sc(Nc2ccccc2)nc2ccsc12 | 66.5%
CCN1CCN(C(=S)Nc2ccc(Cl)c(Cl)c2)CC1 | 62.7%
COc1ccc(C2NCCc3c2[nH]c2ccccc32)cc1CSc1nc2ccccc2s1 (centres undefined) | 110%
CC(C)c1ccc(CN2CCN(C(=O)CCl)CC2)cc1 | 98.5%
O=C(CN1CCSC1=NCc1ccccc1)c1ccc(Cl)c(Cl)c1 | 66%
Cc1ccc2cc3cc(C(=O)NCCCN4CCc5ccccc5C4)oc3nc2c1 | 56.2%
Cc1cccc(Cn2c(C(C)(C)C)cc3cccnc32)c1 | 54.9%
Oc1c(CN2CCCCC2)cc(Br)c2cccnc12 | 105%
CC(C)CC(=O)/C(=C\c1ccc(Cl)cc1Cl)n1cncn1 | 85.2%
CSc1ccc(/C=C/C(=O)c2ccc(O)cc2)cc1 | 50.9%
CCCCCCCCCCCCCCCC[n+]1cccc(C(=O)N(CC)CC)c1 | 103%
CCOC(=O)C1=Nc2ccccc2C1=[N+]=[N-] | 102%
Nc1c2c(nc3sc4c(c13)CCCCC4)CCCCC2 | 71.2%
N#C/C(=C\c1ccc([N+](=O)[O-])o1)c1nc2ccccc2[nH]1 | 76.3%
COc1ccc(CNCC(O)(c2ccccc2)c2ccc(Cl)cc2)cc1 (centres undefined) | 63.7%
O=[N+]([O-])c1ccc(-c2ccn[nH]2)o1 | 69.1%
CCOC(=O)C1CCCN(C2CC(=O)N(c3cccc(C(F)(F)F)c3)C2=O)C1 (centres undefined) | 106%
O=C(CCl)Nc1cc(-c2ccccc2)nn1-c1ccccc1 | 51.1%
Cc1cc(N2C(=O)C=CC2=O)c([N+](=O)[O-])cc1C | 89.8%

Structure (SMILES) | inhibition
C#C[C@]1(O)CC[C@H]2[C@@H]3CCc4cc(O)ccc4[C@H]3CC[C@@]21C | 52.9%
CN1CCN(C(=S)Nc2ccc(Cl)c(Cl)c2)CC1 | 59.6%
Fc1ccc(Nc2ccnc(Nc3ccc(F)cc3)n2)cc1 | 62.5%
O=C(O)C1C2C=CC(C2)C1C(=O)NCc1ccc(Cl)c(Cl)c1 (centres undefined) | 51.3%
Cc1nc2ccc(NC(=O)c3cc([N+](=O)[O-])cc([N+](=O)[O-])c3Cl)cc2s1 | 89.7%
Cc1cccc(N2C(=O)CC(Sc3ccccc3C(=O)O)C2=O)c1 (centres undefined) | 110%
O=C1C=CC(=O)N1CCCCCCN1C(=O)C=CC1=O | 101%
Clc1ccc(Nc2ccc(NCc3ccccc3)nn2)cc1 | 91.6%
O=C(Nc1ccccc1)N1CCc2ccccc2C1 | 65.5%
CCOc1ccc(C(=O)C(CCC(CN(C)C)C(=O)c2ccc(OCC)cc2)CN(C)C)cc1 (centres undefined) | 90.4%
NNC(=S)NCc1cccnc1 | 71%
CCOC(=O)c1c(-c2ccccc2)nc2ccccn12 | 111%
O=C(Nc1cccc(N=Cc2cc(Br)cc(Br)c2O)c1)c1ccco1 | 64.8%
Cc1cc2ncn(/N=C/c3ccc([N+](=O)[O-])s3)c2cc1C | 78.1%
CCN1/C(=C/c2ccc3cc(C)ccc3[n+]2CC)Sc2ccccc21 | 105%
COC(=O)c1ccccc1SC1CC(=O)N(c2ccccc2)C1=O (centres undefined) | 94.9%
CC1CCCN(CCCOc2ccc(Cl)cc2Br)C1 (centres undefined) | 54%
O=CC1=C(c2ccccc2)Oc2ccccc2O1 | 61%
CN1CCc2cccc3c2[C@@H]1Cc1ccc(O)c(O)c1-3 | 108%
O=C(Cc1ccc(Cl)cc1)Oc1cccc2cccnc12 | 91.6%

Structure (SMILES) | inhibition
O=C1C=CC(=O)N1c1ccc(OC(F)F)cc1 | 116%
CCCNC(=O)c1nnsc1S(=O)c1ccc(Cl)cc1 (centres undefined) | 111%
O=C(Oc1cccc2cccnc12)c1ccc(N2C(=O)C3C4CCC(C4)C3C2=O)cc1 (centres undefined) | 73.2%
CNc1nc(SCc2ccc(C)cc2)nc2c1CCCC2 | 102%
Cc1cc(C)c(S(=O)(=O)Nc2cc(SCC(=O)O)c(O)c3ccccc23)cc1C | 62.5%
CN1CCN(S(=O)(=O)c2ccc(NC(=S)NC(=O)C(C)(C)C)cc2)CC1 | 73.6%
Clc1cccc(OCCN2CCN(CCOc3cccc(Cl)c3)CC2)c1 | 100%
O=S(=O)(CC(CN1CCCC1)N1CCCC1)c1ccc2ccccc2c1 (centres undefined) | 99.6%
Oc1c(I)cc(Cl)c2cccnc12 | 60.4%
Cc1ccc(N2C(=O)CC(Sc3ccccc3C(=O)O)C2=O)cc1 (centres undefined) | 114%
CCCOc1ccc(C(=O)C(CN2CCCC2)c2ccccc2)cc1 (centres undefined) | 89.3%
OC(CN1CCCCC1)Cn1c2ccc(Cl)cc2c2cc(Cl)ccc21 (centres undefined) | 103%
CCC(C)c1ccc(OCCn2ccnc2)cc1 (centres undefined) | 72.5%
COc1ccc2cnn(-c3ccc(C)cc3)c(=O)c2c1OC | 53.6%
CC(=O)Nc1sc2c(c1-c1nc3ccccc3s1)CCN(C(C)C)C2 | 105%
CN(C)c1ccc(N2C(=O)CC(Sc3ccccc3C(=O)O)C2=O)cc1 (centres undefined) | 112%
Cc1ccn2cc(-c3ccc(NC(=O)c4ccco4)cc3)nc2c1 | 57.9%
O=[N+]([O-])c1cc(S(=O)(=O)N2CCCCCC2)ccc1F | 52.6%
CN(C)c1ccc(N=C/C=C2/N(C)c3ccccc3C2(C)C)cc1 | 83.1%
